# Source: PubChem BioAssay AID588342 (National Center for Advancing Translational Sciences (NCATS), 2011)
# Among all 360,000 compounds or so, about 25,000 (6.9%) were called active. The inconclusive results got no clear call from the source; some entries with a clear call stand among them for comparison. Calls come from the whole dose curve; as a rule, active = well fitted inhibition curve with a large enough effect; inconclusive = small, poorly fitted or top-dose-only effect; inactive = flat fitted curve, though single readings scatter. Potencies of inconclusive entries are doubtful fits and often do not repeat.
# Target: Luciferin 4-monooxygenase (Photinus pyralis) (UniProt P08659)
# Sequence of UniProt P08659 (P08659 whole entry, looked up): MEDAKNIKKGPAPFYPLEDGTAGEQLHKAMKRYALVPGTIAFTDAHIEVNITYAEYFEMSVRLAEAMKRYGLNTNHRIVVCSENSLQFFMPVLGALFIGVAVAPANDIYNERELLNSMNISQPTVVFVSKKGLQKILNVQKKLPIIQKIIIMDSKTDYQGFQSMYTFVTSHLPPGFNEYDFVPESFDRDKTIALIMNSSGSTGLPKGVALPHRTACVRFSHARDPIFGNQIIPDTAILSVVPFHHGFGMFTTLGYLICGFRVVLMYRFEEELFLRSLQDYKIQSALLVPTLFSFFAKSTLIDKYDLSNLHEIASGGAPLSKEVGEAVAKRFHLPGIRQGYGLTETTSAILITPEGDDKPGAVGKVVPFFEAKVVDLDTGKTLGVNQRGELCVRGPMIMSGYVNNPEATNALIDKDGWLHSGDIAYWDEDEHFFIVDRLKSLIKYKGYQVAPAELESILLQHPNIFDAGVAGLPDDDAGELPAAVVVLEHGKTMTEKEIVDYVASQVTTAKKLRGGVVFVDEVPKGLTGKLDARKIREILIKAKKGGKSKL
# Test: qHTS profiling assay for firefly luciferase inhibitor/activator using purifed enzyme and Km concentrations of substrates (counterscreen for miR-21 project); note: nearly all actives have a fitted effect of over 55% in size;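 for activity change, negative = inhibition: plate controls were vehicle for no effect and reference inhibitor for full effect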
# Conditions: purified FLuc, luminescence inhibition; activity change, negative = inhibition: at 57.5 µM (top of the series)
# Procedure, shortened: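 Purified P. pyralis luciferase (10nM final) with 10uM D-luciferin and 10uM ATP (Km levels) in 50mM Tris acetate pH 7.5, 10mM Mg acetate, 0.01% Tween-20, 0.05% BSA; qHTS 6-point titration, ~60 µM downward; luminescence read.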
# Potency is the fitted concentration of half-maximal effect; tags give direction and shape of the fitted curve.
Structure (SMILES),Potency,"activity change, negative = inhibition"
Cc1ccc(C)c(N2C(=N)S/C(=C\c3ccc(-c4ccccc4C(=O)O)o3)C2=O)c1,"inconclusive: 16.9 µM [inhibitor, partial curve]",
CCOc1ccc(/C=N/NC(=O)c2ccoc2C)cc1OC,"inconclusive: 26.9 µM [inhibitor, single point]",
Cc1cc(-c2n[nH]c(=S)n2-c2ccccc2C)cs1,"inconclusive: 37.9 µM [inhibitor, partial curve, poor fit]",
Cc1ccc(/C=C/C(=O)NCc2ccncc2)cc1,"inconclusive: 23.9 µM [inhibitor, single point]",
COc1ccc(CCNC(=O)c2ccc(CSc3ccccc3)o2)cc1,"inconclusive: 37.9 µM [inhibitor, partial curve, poor fit]",
O=c1c2cc(-c3ccccc3)sc2nc2n1N=C(c1cccs1)CS2,active: 0.601 µM,
COc1ccc(CNC(=O)[C@@H](NC(=O)C2CCN(C(=O)[C@@H](N)CCSC)CC2)C(C)C)cc1,,inactive: 2.2%
Cc1cnc(C(=O)OCC(=O)C23CC4CC(CC(C4)C2)C3)cn1,"inconclusive: 12 µM [inhibitor, partial curve]",
COCC(=O)Nc1nc(-c2ccc(-c3ccccc3)cc2)cs1,"inconclusive: 7.57 µM [inhibitor, partial curve]",
COc1ccccc1N1CCN(C(=O)c2cc3c(s2)CCCCC3)CC1,,inactive: -21.7%
Cc1ccc(-n2ncc3c(N(C)Cc4ccccc4)ncnc32)cc1,active: 0.675 µM,
Cc1ccc(-c2cc(C(=O)N/N=C/C=C/c3ccccc3)n[nH]2)s1,active: 9.53 µM,
O=C(Nc1cc(-c2nc3ncccc3o2)ccc1Cl)c1ccco1,"inconclusive: 26.9 µM [inhibitor, partial curve, poor fit]",
CCCCN(CCCC)Cc1ccc(C(=O)NNC(=O)Nc2ccc(Cl)cc2)o1,"inconclusive: 23.9 µM [inhibitor, partial curve, poor fit]",
CCOC(=O)CCSc1nc(C)c2ccccc2n1,"inconclusive: 23.9 µM [inhibitor, single point]",
Cc1ccccc1NC(=O)C1CCC(CNS(=O)(=O)c2ccc3c(c2)C(C)(C)C(=O)N3C)CC1 (stereo not given),,inactive: 5.46%
O=C(Nc1ccc(Cl)cc1)N1CCSC1=NCc1ccccc1,"inconclusive: 30.1 µM [inhibitor, partial curve, poor fit]",
Cc1cc(C)n(C(=O)/C(C#N)=N\Nc2ccccc2[N+](=O)[O-])n1,"inconclusive: 26.9 µM [inhibitor, single point]",
Cc1ccc(NC(=O)CN(C)C(=O)c2ccc(Sc3nncn3C)c([N+](=O)[O-])c2)cc1,,inactive: -2.23%
Cc1ccc(C(c2sc3nc(-c4ccco4)nn3c2O)N2CCOCC2)cc1 (stereo not given),,inactive: -0.166%
O=C(/C=C/c1ccccc1Cl)NCCc1ccccc1,active: 19 µM,
Cc1ccc(C)c(N2CCN(C(=O)Cc3ccc(-n4c(=O)[nH]c5ccsc5c4=O)cc3)CC2)c1,,inactive: -0.155%
CCc1ccc(Nc2n[n+](C)c(-c3ccc(C(=O)O)cc3)s2)cc1,"inconclusive: 37.9 µM [inhibitor, single point]",
Cc1ccc(NC(=O)Cn2c(C)cc(C)c(C#N)c2=O)cc1,,inactive: 3.48%

Structure (SMILES),Potency,"activity change, negative = inhibition"
CCOc1ccc(NC(=O)Cn2c(=O)oc3cc(S(=O)(=O)NC4CCCC4)ccc32)cc1,"inconclusive: 19 µM [inhibitor, partial curve, poor fit]",
COc1cc(NC(=O)c2ccc3c(c2)C(=O)N(CCC(C)C)C3=O)c(C(=O)O)cc1OC,"inconclusive: 19 µM [inhibitor, partial curve]",
CCc1sc(C(=O)Nc2cccnc2)cc1Br,active: 10.7 µM,
COc1cc(/C=C/C(=O)Nc2ccc(C)cc2)cc(OC)c1OC,"inconclusive: 37.9 µM [inhibitor, partial curve, poor fit]",
CC1CN=C(N(C(=S)Nc2ccccc2)c2cccc(C(F)(F)F)c2)S1 (stereo not given),"inconclusive: 23.9 µM [inhibitor, partial curve, poor fit]",
CC(C)(C)C(=O)O/N=C(\N)COc1cccc(Cl)c1,active: 16.9 µM,
Cn1c(/C(C#N)=C/Nc2ccccn2)nc2ccccc21,"inconclusive: 26.9 µM [inhibitor, partial curve, poor fit]",
COC(=O)c1c(C)cc(C)n2c1nc1ccccc12,"inconclusive: 37.9 µM [inhibitor, partial curve, poor fit]",
COc1cc(/C=C/C(=O)OCC(=O)Nc2cccc(Oc3ccccc3)c2)ccc1O,"inconclusive: 21.3 µM [inhibitor, partial curve, poor fit]",
Cc1cccn2c(=O)c(C=C(C#N)C#N)c(N3CCN(c4ccccc4)CC3)nc12,,inactive: -1.67%
CCc1ccc(C(=O)Nc2nnn(CC)n2)cc1,active: 4.26 µM,
COc1ccc(N2CCN(C(=O)NCc3cccc(OC)c3)CC2)cc1,,inactive: -1.86%
C[C@@H]1C=C[C@](Cc2ccccc2)(C(=O)NCC2CC2)N1C(=O)c1ccccc1,"inconclusive: 21.3 µM [inhibitor, single point]",
COc1ccc2oc(C(=O)OCC(=O)Nc3ccc(C(=O)N(C)C)cc3)c(C)c2c1,"inconclusive: 23.9 µM [inhibitor, partial curve]",
CCCC(=O)N1CCN(c2ccc(NC(=O)c3ccc(Br)o3)cc2)CC1,,inactive: -7.1%
Cc1cc2c(c(=O)n1C)C(Cc1ccccc1)C(C#N)=C(N)O2 (stereo not given),"inconclusive: 19 µM [inhibitor, partial curve, poor fit]",
O=C(COC(=O)C1CCCCC1)Nc1ccc(N2CCCCC2)cc1,active: 21.3 µM,
CC1Cc2cc(/C(O)=C3/C(=O)C(=O)N(Cc4ccco4)C3c3cccs3)ccc2O1 (stereo not given),"inconclusive: 30.1 µM [inhibitor, partial curve, poor fit]",
COc1cc(NC(=O)Cc2c(C(=O)O)n(C)c3ccccc23)cc(OC)c1OC,"inconclusive: 30.1 µM [inhibitor, partial curve, poor fit]",
Cc1nnc(NC(=O)c2ccc3ccccc3c2)o1,active: 23.9 µM,
O=C(CSCc1ccccc1)Nc1ccccc1,"inconclusive: 23.9 µM [inhibitor, partial curve]",
O=C(CCc1ccccc1)Nc1cc(Cl)ccc1O,"inconclusive: 23.9 µM [inhibitor, single point]",
O=C(OC(c1ccccc1)c1nccc2ccccc12)c1cccc([N+](=O)[O-])c1 (stereo not given),"inconclusive: 15.1 µM [inhibitor, partial curve]",
CCOc1ccc(OCC)c(NC(=O)C2CCN(S(=O)(=O)c3cn(C)cn3)CC2)c1,,inactive: 5.14%

Structure (SMILES),Potency,"activity change, negative = inhibition"
Cc1ccccc1-c1nc(CS(=O)CC(=O)NC2CCCCC2)c(C)o1 (stereo not given),,inactive: -0.618%
O=C(Nc1ccccn1)Nc1ccccc1Cl,"inconclusive: 4.78 µM [inhibitor, partial curve, poor fit]",
O=C1/C(=C/c2cccc(O)c2)SC(=S)N1CC1CCCO1 (stereo not given),"inconclusive: 7.57 µM [inhibitor, partial curve]",
CCSC1=C(C#N)C(c2ccccc2Cl)CC(=O)N1 (stereo not given),"inconclusive: 16.9 µM [inhibitor, partial curve]",
Cc1ccc(N2C(=O)NC(NS(=O)(=O)c3ccc(Cl)cc3)(C(F)(F)F)C2=O)cc1C (stereo not given),"inconclusive: 12 µM [inhibitor, partial curve]",
Cc1ccnc(NCc2c(O)ccc3ccccc23)c1,"inconclusive: 21.3 µM [inhibitor, partial curve, poor fit]",
O=C(c1ccco1)n1nc(-c2ccc(Cl)cc2)nc1NCc1ccccc1,,inactive: -15.5%
COc1cc(C(=O)NCc2ccc(-c3nc4ccccc4s3)cc2)cc(OC)c1OC,active: 0.601 µM,
O=C(Nc1ccc(Cl)c(Cl)c1)N1CCC(N2CCCCC2)CC1,,inactive: 1.97%
COc1ccccc1/C=C/C=NC1C(=O)N(c2ccccc2)[N+](C)=C1C (stereo not given),"inconclusive: 19 µM [inhibitor, partial curve]",
O=C(OCc1ccccc1)c1cnc(Cl)c(Cl)c1,"inconclusive: 37.9 µM [inhibitor, single point]",
COc1ccc(CCC(=O)Nc2cccc(Cl)c2)cc1,"inconclusive: 26.9 µM [inhibitor, partial curve, poor fit]",
Cc1ccc(S(=O)(=O)N(C)C)cc1NC(=O)CCc1c[nH]c2ccccc12,"inconclusive: 37.9 µM [inhibitor, partial curve, poor fit]",
O=C(CCc1nc2ccccc2[nH]1)Nc1ccc2c(c1)OCO2,"inconclusive: 16.9 µM [inhibitor, partial curve, poor fit]",
CCOc1cc(-c2nc(C)c(C(C)=O)n2O)ccc1OCC(=O)Nc1cccc(C)c1,"inconclusive: 26.9 µM [inhibitor, partial curve, poor fit]",
O=C(Nc1ccc2c(c1)OCO2)C1CCCN1C(=O)NCc1ccccc1 (stereo not given),,inactive: 1.7%
Cc1ccc(N/N=C/c2ccc3c(c2)OCCO3)cc1Cl,active: 23.9 µM,
COc1ccc(-n2cc(C(=O)c3cc(Cl)ccc3O)cc(C#N)c2=O)cc1,"inconclusive: 9.53 µM [inhibitor, partial curve, poor fit]",
COc1ccc(NC(=O)C2CCCN(S(=O)(=O)c3ccc4c(c3)CCCC(=O)N4)C2)cc1OC (stereo not given),,inactive: -6.08%
Cc1[nH]c2ccccc2c1/C=N/Nc1ccc([N+](=O)[O-])cc1,"inconclusive: 15.1 µM [inhibitor, partial curve, poor fit]",
CC(=O)Nc1cccc(-c2nc3ccccc3s2)c1,active: 9.53 µM,
FC(F)(F)c1ccccc1-c1nc(-c2ccncc2)no1,"inconclusive: 26.9 µM [inhibitor, partial curve, poor fit]",
